# Experimental data from PubChem BioAssay AID1347120 (National Center for Advancing Translational Sciences (NCATS), 2019).
# Where “and” joins values, the source holds several entries; their conditions need not be identical. Equal values may be shown once. Out of some 390,000 compounds screened, about 930 (0.24%) were called active. Inconclusive results, whose numbers are uncertain, are shown with a selection of clear calls. Calls come from the whole dose curve; as a rule, active = well fitted activation curve with a large enough effect; inconclusive = small, poorly fitted or top-dose-only effect; inactive = no such curve, though single readings can be large or run the other way. A potency beside an inconclusive call is a rough fit, not a confirmed value.
# Test: qHTS for Suppressors of FUS Proteinopathy: Primary screen using FUS-linked yeast assay; note: nearly all actives have a fitted effect of over 55% in size;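 for growth rescue (activation): plate controls were DMSO vehicle for no effect and reference control for full effect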
# Settings: S. cerevisiae FUS-expressing, OD600, 24 h; Potency: growth rescue; growth rescue (activation): at 76.6 µM (top of the series)
# Summary of the method: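 Steps: raffinose overnight preculture; dilution to OD 0.005 in 2% galactose minimal medium; compound addition (concentration series); 24hr at 30C, 99% humidity; absorbance read at 600 nm.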
# Potency is the fitted concentration of half-maximal effect; tags give direction and shape of the fitted curve.
Compound,Potency,growth rescue (activation)
COc1ccc(OC)c(-c2csc(NC(=O)CN3C(=O)C4CCCCC4C3=O)n2)c1 (stereo not given),"inconclusive: 50.1 µM [activator, single point]",
Cc1ccccc1CNC(=O)c1ccc(CSc2nc3cccnc3n2Cc2ccccc2)cc1,"inconclusive: 28.2 µM [activator, single point]",
CCCCNC(=O)C[C@@H]1C(=O)N(Cc2ccc(OC)cc2)C2=CCN(C(=O)OC(C)(C)C)C[C@]21C(=O)OCC,"inconclusive: 1.78 µM [activator, full curve, poor fit]",
CCOC(=O)[C@@]12CN(C(=O)OC(C)(C)C)CC=C1N(Cc1ccc(OC)cc1)C(=O)[C@H]2CC(=O)NCCc1ccccc1OC,"inconclusive: 14.1 µM [activator, partial curve]",
O=C(CN1CCSc2ccccc21)N1CCCCC1,,inactive: -9.37%
CCOC(=O)N1CCN(C(=O)c2ccc3oc(CCCc4ccccc4)nc3c2)CC1,,inactive: 12.1%
CCCN(C(=O)COc1cc(=O)n(CC)c2ccccc12)c1ccc(C(C)C)cc1,"inconclusive: 50.1 µM [activator, single point]",
CCc1ccc(-n2nc(C)c3c(C(=O)Nc4cc(C)c(Cl)cc4OC)cc(C)nc32)cc1,,inactive: -13.2%
O=C(Nc1ccc(C(F)(F)F)cc1)C1CCN(c2cnccn2)CC1,inactive,
O=C(Nc1cccnc1)c1ccc(NS(=O)(=O)c2cc([N+](=O)[O-])ccc2Cl)cc1,"inconclusive: 35.5 µM [activator, partial curve, poor fit]",
COc1cccc(Cn2c(SCC(=O)N(C)c3ccccc3)nc3ccccc32)c1,"inconclusive: 20 µM [activator, single point]",
Cc1cc2cc(CCNC(=O)c3ccc(S(=O)(=O)N4CCOCC4)cc3)c(=O)[nH]c2cc1C,"inconclusive: 12.6 µM [activator, partial curve]",
COc1ccc(CCNC(=O)c2nc(SCc3ccc(C)cc3)ncc2Cl)cc1OC,"inconclusive: 50.1 µM [activator, single point]",
CC1(C)CC(NCc2ccccc2)=CC(=S)N1,,inactive: -5.94%
Cc1ccc(-c2nc(C(=O)NCC3CCCO3)cc3c2[nH]c2ccccc23)cc1 (stereo not given),,inactive: 40.9%
Cc1cc(C(=O)COC(=O)C2CCN(C(=O)c3ccc(Cl)cc3)CC2)c(C)n1CC1CCCO1 (stereo not given),"inconclusive: 2.51 µM [activator, full curve]",
O=C(OCC(=O)N1CCN(C(=O)c2ccco2)CC1)c1cc(-c2ccc(F)cc2)nc2ccccc12,"inconclusive: 28.2 µM [activator, single point]",
N#Cc1cccc(NC(=O)COC(=O)c2cccc(N3C(=O)c4ccccc4C3=O)c2)c1,"inconclusive: 8.91 µM [activator, partial curve]",
COc1cccc2cc(C(=O)C3=C(O)C(=O)N(CCN4CCOCC4)C3c3ccc(Cl)cc3)oc12 (stereo not given),"inconclusive: 35.5 µM [activator, partial curve, poor fit]",
Cc1cc(C(=O)CSc2n[nH]c(N)n2)c(C)n1-c1ccccc1,,inconclusive: 89.9% [activator]

Compound,Potency,growth rescue (activation)
C/C(C=NNC(=O)CSc1nc2ccccc2n1Cc1ccccc1Cl)=C\c1ccccc1,,inactive: -7.05%
CCCN(CCC)CCNC(=O)c1cc2c(=O)n(C)c3ccccc3c2n1C,,inactive: -6.34%
CCCCCCCCn1cnc2c(N)c(C)c(C)cc21,"inconclusive: 20 µM [activator, partial curve, poor fit]",
Cc1ccc(-c2nc(CS(=O)CC(=O)NC3CCCCC3)c(C)o2)cc1 (stereo not given),,inactive: 11.6%
NC(=O)CSc1nnnn1-c1cccc(O)c1,,inactive: 19.4%
CCCCCCSc1cc(-c2nc3cc(C)ccn3c2NCCCC)ccc1OC,"active: 28.2 µM and inconclusive: 28.2 µM [activator, single point]",
COc1cccc(CNS(=O)(=O)c2ccc(-c3cc(C(F)(F)F)on3)s2)c1,,inactive: 15.4%
CCOC(=O)c1ccc(N2C(=O)Cc3cc(OCC)c(OCC)cc3C2c2ccccc2)cc1 (stereo not given),"inconclusive: 39.8 µM [activator, single point]",
O=[N+]([O-])c1cccc(N2Cc3ccccc3C2)c1,"inconclusive: 5.01 µM [activator, full curve, poor fit]",
COc1ccc(CNC(=O)CN2C(=O)CSc3ccc(S(=O)(=O)N4CCCCC4)cc32)cc1,"inconclusive: 39.8 µM [activator, single point]",
CCCC1CCC2(CC1)CCC2OC(=O)Nc1ccc2c(c1)OCO2 (stereo not given),,inactive: -0.23%
CCCCN1CC[C@H]2C=CC[C@@H](C(=O)Nc3ccc(Cl)cc3Cl)[C@H]2C1=O,"inconclusive: 28.2 µM [activator, partial curve, poor fit]",
Cc1nn(Cc2ccc(Cl)cc2Cl)c(C)c1NC(=O)c1sc2ccccc2c1Cl,,inactive: 13.8%
O=C(NC1CCCCC1)N(Cc1ccc(F)cc1)Cc1nc2ccccc2c(=O)[nH]1,,inactive: 14.4%
CCCCOc1cccc(C2C(C(=O)c3ccc(C)o3)=C(O)C(=O)N2c2nnc(C)s2)c1 (stereo not given),"inconclusive: 20 µM [activator, partial curve, poor fit]",
COc1ccc2c(c1)C(CC(C)=O)N(c1ccc(-c3cccnc3)cc1)C(c1ccsc1)=C2 (stereo not given),"inconclusive: 50.1 µM [activator, single point]",
Cc1cc(OCc2cc(C(=O)N3CCC(Oc4cccnc4)CC3)no2)cc(C)c1Cl,"inconclusive: 39.8 µM [activator, single point]",
O=C(Cc1ccccc1)Nc1nnc(-c2cccs2)s1,,inactive: 14.5%
C#CCOCCOCCOCCNc1nc(N2CCN(C(=O)[C@H](Cc3cc4ccccc4[nH]3)n3cc([C@@H](N)Cc4ccc(O)cc4)nn3)CC2)nc(N2CCN(C(=O)[C@H](Cc3cc4ccccc4[nH]3)n3cc([C@@H](N)CC(C)C)nn3)CC2)n1,"inconclusive: 25.1 µM [activator, partial curve, poor fit]",
CC(C)(C)n1nnnc1C(c1cccnc1)N1CCN(c2cccc(C(F)(F)F)c2)CC1 (stereo not given),"inconclusive: 20 µM [activator, partial curve, poor fit]",
